# Assay results published in PubChem BioAssay (NCATS).
# “And” between values parts separate entries of the source, which are not always exact repeats. Equal entries are not always repeated. The inconclusive results got no clear call from the source; some entries with a clear call stand among them for comparison. For some of these results: Potencies of inconclusive entries are doubtful fits and often do not repeat. The source made the active and inactive calls. Calls follow the shape of the dose curve; as a rule, active = well fitted curve in the direction sought with a large enough effect; inconclusive = small, poorly fitted or top-dose-only effect, or another doubt; inactive = no such curve, though single readings can be large; an effect the other way counts as inactive or inconclusive.
# What was measured:
# [1] = Primary qHTS for inhibitors of nuclear receptor binding SET domain protein 2 (NSD2) in an RCH-ACV wild type WT cells (2C) (AID 1645877); conditions: activity change, negative = cell killing: at 44.9 µM (top of the series); also: nearly all actives have a fitted effect of over 70% in size
# [2] = Quantitative High-Throughput drug screen in 47 multiple myeloma cell lines against the NCATS MIPE library collection: INA6_PLB cell viability assay (AID 1918965; also: nearly all actives have a fitted effect of over 55% in size)
# Procedure, shortened: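 CellTiter-Glo ATP luminescence gave viability after 48 h compound treatment at 37C of 500 multiple myeloma cells per well. Normalisation used DMSO-only wells as 100% and media-only wells as 0% viability; primary qHTS of approved and investigational drugs.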
# [3] = Quantitative High-Throughput drug screen in 47 multiple myeloma cell lines against the NCATS MIPE library collection: MM1R_ATCC cell viability assay (AID 1918981); also: nearly all actives have a fitted effect of over 35% in size
# Procedure, shortened: (§1)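 ATP-based CellTiter-Glo luminescence after 48 h drug exposure (37 °C, 5% CO2) of 500 myeloma cells per well. DMSO-only wells set 100% viability, media-only wells 0%; MIPE 4.0 library added by pin tool.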
# [4] = Quantitative High-Throughput drug screen in 47 multiple myeloma cell lines against the NCATS MIPE library collection: OCIMY5_PLB cell viability assay (AID 1918988); also: nearly all actives have a fitted effect of over 65% in size
# Procedure, shortened: as §1
# [5] = Quantitative High-Throughput drug screen in 47 multiple myeloma cell lines against the NCATS MIPE library collection: OPM1_PLB cell viability assay (AID 1918989); also: nearly all actives have a fitted effect of over 40% in size
# Procedure, shortened: as §1
# HeLa = assay: Primary qHTS to identify gynecologic anti-cancer compounds using libraries of approved drugs and bioactive compounds (AID 1345084); conditions: Gynecologic cancer cell panel viability, ATPlite luminescence, 48 h; series mostly up to 57.5 µM; also: nearly all actives have a fitted effect of over 55% in size
# Procedure, shortened: (§2)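 Five-concentration response, 48 h; readout is ATP-driven luciferase luminescence.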
# Tov-21-G = assay: as above; conditions: Gynecologic cancer cell panel viability, ATPlite luminescence, 48 h; series mostly up to 57.5 µM
# Procedure, shortened: as §2
# [6] = qHTS of pediatric cancer cell lines to identify multiple opportunities for drug repurposing: Primary screen for A673 cells (AID 1347092); conditions: A673 Ewing sarcoma viability, CellTiter-Glo ATP luminescence, 48 h; activity change, negative = cytotoxic: at 46 µM (top of the series); also: nearly all actives have a fitted effect of over 45% in size
# Procedure, shortened: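 Luminescence from CellTiter-Glo, taken after 15 min at room temperature, served as the proxy for metabolically active cells following 48 h treatment. Both potency and efficacy were taken from curves fitted to the titration data.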
# [7] = qHTS of pediatric cancer cell lines to identify multiple opportunities for drug repurposing: Confirmatory screen for NB1643 cells (AID 1347109); also: nearly all actives have a fitted effect of over 45% in size
# Procedure, shortened: (§3)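 Cells (500-1,000/well) rested 5 h, then received compounds for 48 h; metabolically active cells were measured by CellTiter-Glo luminescence. Final concentrations spanned up to 46 µM (MIPE, 11-point) or 0.59 nM-46 µM (NPC, 8-point) in primary screens, 11-point in follow-ups.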
# [8] = qHTS of pediatric cancer cell lines to identify multiple opportunities for drug repurposing: Confirmatory screen for SJ-GBM2 cells (AID 1347116); also: nearly all actives have a fitted effect of over 60% in size
# Procedure, shortened: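 Viability measured as metabolically active cells via CellTiter-Glo luminescence following 48 hours of compound exposure, 11-point dilutions in confirmatory testing. 500-1,000 cells/well plated 5 hours before dosing; controls were DMSO and 2.3 µM bortezomib.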
# [9] = qHTS of pediatric cancer cell lines to identify multiple opportunities for drug repurposing: Confirmatory screen for RD cells (AID 1347124); conditions: RD rhabdomyosarcoma cell viability; activity change, negative = cytotoxic: at 45.9 µM (top of the series) unless noted;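 also: cells exposed to compound for 48 h before viability readout; nearly all actives have a fitted effect of over 65% in size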
# Procedure, shortened: as §3
# [10] = qHTS of pediatric cancer cell lines to identify multiple opportunities for drug repurposing: Confirmatory screen for OHS-50 cells (AID 1347128);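 also: compound exposure lasted 48 h at 37 degrees C; nearly all actives have a fitted effect of over 55% in size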
# Procedure, shortened: as §3
# [11] = Quantitative High-Throughput drug screen in 47 multiple myeloma cell lines against the NCATS MIPE library collection: JIM3_ECACC cell viability assay (AID 1918963; also: nearly all actives have a fitted effect of over 35% in size)
# Procedure, shortened: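 Myeloma cells (500 per well) were exposed to MIPE 4.0 compounds by pin transfer and incubated 48 hours at 37C, 5% CO2. Viability was read as ATP by CellTiter-Glo luminescence, normalised to DMSO (100%) and media-only (0%) wells.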
# [12] = Quantitative High-Throughput drug screen in 47 multiple myeloma cell lines against the NCATS MIPE library collection: VP6_DJ cell viability assay (AID 1919867); conditions: ATP luminescence, 48 h; series mostly up to 45.8 µM; also: nearly all actives have a fitted effect of over 40% in size
# Procedure, shortened: as §1
# [13] = qHTS of pediatric cancer cell lines to identify multiple opportunities for drug repurposing: Confirmatory screen for Saos-2 cells (AID 1347127); also: nearly all actives have a fitted effect of over 60% in size
# Procedure, shortened: as §3
# [14] = Quantitative High-Throughput drug screen in 47 multiple myeloma cell lines against the NCATS MIPE library collection: XG1_PLB cell viability assay (AID 1919866); also: nearly all actives have a fitted effect of over 35% in size
# Procedure, shortened: as §1
# [15] = Quantitative High-Throughput drug screen in 47 multiple myeloma cell lines against the NCATS MIPE library collection: JJN3_DSMZ cell viability assay (AID 1918966; also: nearly all actives have a fitted effect of over 50% in size)
# Procedure, shortened: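 qHTS of the MIPE 4.0 collection: 500 myeloma cells/well, 48 h drug exposure at 37C in 5% CO2, then CellTiter-Glo for 5 min at room temperature before luminescence reading.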
# [16] = Quantitative High-Throughput drug screen in 47 multiple myeloma cell lines against the NCATS MIPE library collection: PE2_PLB cell viability assay (AID 1919869); conditions: PE2_PLB myeloma cells viability, ATP luminescence, 48 h; series mostly up to 45.8 µM; also: nearly all actives have a fitted effect of over 35% in size
# Procedure, shortened: as §1
# CAOV3 = assay: Primary qHTS to identify gynecologic anti-cancer compounds using libraries of approved drugs and bioactive compounds (AID 1345084); conditions: Gynecologic cancer cell panel viability, ATPlite luminescence, 48 h; series mostly up to 57.5 µM; also: nearly all actives have a fitted effect of over 55% in size
# Procedure, shortened: as §2
# Potency is read from the fitted curve at half-maximal effect; tags tell the direction and shape of the fitted curve.
compound,measurement,setting,value
c1cc(-c2cnn3cc(-c4ccc(OCCN5CCCCC5)cc4)cnc23)ccn1,Potency,[1],active: 2.91 µM and active: 3.32 µM
same,Potency,[2],active: 1.87 µM
same,Potency,[3],active: 18.7 µM
same,Potency,[4],active: 4.69 µM
same,Potency,[5],active: 4.18 µM
COc1cc2c(Oc3ccc(-c4cnc(Nc5ccc(F)cc5)n(C)c4=O)cc3F)ccnc2cc1OCCCN1CCOCC1,Potency,[3],active: 3.72 µM
same,Potency,HeLa,"inconclusive: 12.6 µM [cytotoxic, partial curve]"
same,Potency,Tov-21-G,"inconclusive: 35.5 µM [cytotoxic, single point]"
COc1ccc(COc2cc3oc(=O)c4cc(C(C)O)ccc4c3cc2OC)cc1 (stereo unspecified),Potency,[6],"inconclusive: 29.6 µM [cytotoxic, single point]"
same,Potency,[1],"inconclusive: 18.4 µM [inhibitor, single point] and inconclusive: 16.6 µM [inhibitor, partial curve]"
same,Potency,[3],"inconclusive: 18.7 µM [cytotoxic, partial curve]"
same,Potency,[5],active: 18.7 µM
COc1ccc(C=Cc2cc(OC)c(OC)c(OC)c2)cc1O,Potency,[7],"inconclusive: 0.0131 µM [cytotoxic, full curve]"
same,Potency,[8],"inconclusive: 0.0165 µM [cytotoxic, full curve]"
same,Potency,[9],active: 0.0117 µM
same,Potency,[10],"inconclusive: 0.0104 µM [cytotoxic, full curve]"
same,Potency,[11],inactive
same,Potency,[3],"inconclusive: 0.0023 µM [cytotoxic, full curve]"
same,Potency,[4],"inconclusive: 0.0037 µM [cytotoxic, full curve]"
same,Potency,[12],inactive
Nc1nc(Cl)nc2c1ncn2[C@H]1C[C@H](O)[C@@H](CO)O1,Potency,[8],"inconclusive: 0.147 µM [cytotoxic, full curve, poor fit]"
same,Potency,[9],"inconclusive: 23.3 µM [cytotoxic, partial curve, poor fit]"
same,Potency,[13],inactive
same,Potency,[10],"inconclusive: 2.61 µM [cytotoxic, full curve]"
same,Potency,[3],active: 0.264 µM
same,Potency,[4],"inconclusive: 0.187 µM [cytotoxic, full curve, poor fit]"
same,Potency,[14],"inconclusive: 0.418 µM [cytotoxic, full curve]"
Cc1cccc(C=NNc2cc(N3CCOCC3)nc(OCCc3ccccn3)n2)c1,Potency,[6],active: 7.43 µM
same,Potency,[12],"inconclusive: 16.6 µM [cytotoxic, partial curve, poor fit]"
CC(C)OC(=O)C1=CN(C(=O)c2ccc(F)c(F)c2)CC(C)(C)c2c1[nH]c1ccccc21,Potency,[11],"inconclusive: 0.003 µM [rising, full curve, poor fit]"
same,Potency,[2],"inconclusive: 2.64 µM [cytotoxic, full curve, poor fit]"
same,Potency,[15],"inconclusive: 0.0083 µM [rising, full curve, poor fit]"
same,Potency,[3],"inconclusive: 0.003 µM [rising, full curve, poor fit]"
same,Potency,[4],"inconclusive: 37.2 µM [cytotoxic, single point]"
same,Potency,[5],inactive
same,Potency,[14],inactive
same,Potency,[16],inactive
O=C1Nc2ccc(Cl)cc2[C@@](C#CC2CC2)(C(F)(F)F)O1,Potency,[6],"inconclusive: 26.6 µM [cytotoxic, single point]"
Cc1[nH]c2ccccc2c1CCNCc1ccc(C=CC(=O)NO)cc1,Potency,[13],active: 0.233 µM
C=CC(=O)N1CCC[C@@H](n2nc(-c3ccc(Oc4ccccc4)cc3)c3c(N)ncnc32)C1,Potency,[7],"inconclusive: 16.5 µM [cytotoxic, partial curve]"
same,Potency,[8],inactive
same,Potency,[13],"inconclusive: 36.9 µM [cytotoxic, single point]"
same,Potency,[10],"inconclusive: 18.5 µM [cytotoxic, partial curve, poor fit]"
same,Potency,CAOV3,"inconclusive: 31.6 µM [cytotoxic, partial curve, poor fit]"
O=C(NCCCNc1nc(Nc2cccc(NC(=O)N3CCCC3)c2)ncc1I)c1cccs1,Potency,[1],"inconclusive: 934 nM [inhibitor, full curve, poor fit]"
same,Potency,[16],active: 1.18 µM
CC(C)c1ccc(Cn2ccc3c4c(N)nc(NC5CC5)nc4ccc32)cc1,Potency,[11],active: 0.148 µM
same,Potency,[2],active: 1.48 µM
same,Potency,[4],active: 2.35 µM
NC(=O)c1c(OCc2c(F)cc(Br)cc2F)nsc1NC(=O)NCCCCN1CCCC1,Potency,[1],active: 7420 nM
same,Potency,[2],active: 18.7 µM
same,Potency,[15],active: 20.9 µM
same,Potency,[3],active: 20.9 µM
same,Potency,CAOV3,"inconclusive: 20 µM [cytotoxic, partial curve, poor fit]"
same,Potency,HeLa,inactive
same,Potency,Tov-21-G,"inconclusive: 10 µM [cytotoxic, partial curve]"
COc1cc(C(C)C)c2c(c1)S(=O)(=O)N(COc1cc(=O)n3cccc(OCCN4CCCCC4)c3n1)C2=O,Potency,[3],"inconclusive: 26.4 µM [cytotoxic, single point]"
same,Potency,[4],"inconclusive: 13.2 µM [cytotoxic, partial curve, poor fit]"
same,Potency,[12],active: 16.6 µM
CC(=O)O[C@@]12CO[C@@H]1C[C@H](O)[C@@]1(C)C(=O)[C@H](O)C3=C(C)[C@@H](OC(=O)[C@H](O)[C@@H](NC(=O)OC(C)(C)C)c4ccccc4)C[C@@](O)([C@@H](OC(=O)c4ccccc4)[C@H]21)C3(C)C,Potency,HeLa,inconclusive: 0.1 µM
same,Potency,Tov-21-G,inconclusive: 0.1 µM
